From patent US20230130791A1, “A Combined Inhibition of EGFR and NRF2 in The Treatment of Malignant Glioma” (United States Government as represented by the Department …, priority 2020, published 2023)

Tests used:
[1] = tested on: Nrf2 target genes (xCT/SLC7A11, GCLM, NQO1); test: Expression of Nrf2 target genes/proteins in Mayo PDX explant cultures; format: cell-based, human
Nrf2 = Nrf2 luciferase reporter (ARE-NanoLuc reporter); format: cell-based; conditions: erlotinib-induced

C#Cc1cccc(Nc2ncnc3cc(OCCOC)c(OCCOC)cc23)c1 [Erlotinib, erlotinib]
Nrf2 target genes (xCT/SLC7A11, GCLM, NQO1) ([1]; erlotinib 1 μM, 24 h, GBM12 cells): induces
NQO1 protein ([1]; in response to erlotinib): upregulation
xCT/SLC7A11 protein ([1]; in response to erlotinib): increase
SLC7A11, NQO1, and GCLM expression ([1]; multiple PDX lines): induced
activity of an Nrf2 luciferase reporter (ARE-NanoLuc reporter) (Nrf2): increased
